To fix the notation:
B1: PhoQ; a variant is named by its letters at X, in order, P23837 (parent)
chain: MKKLLRLFFPLSLRVRFLLATAAVVLVLSLAYGMVALIGYSVSFDKTTFRLLRGESNLFYTLAKWENNKLHVELPENIDKQSPTMTLIYDENGQLLWAQRDVPWLMKMIQPDWLKSNGFHEIEADVNDTSLLLSGDHSIQQQLQEVREDDDDAEMTHSVAVNVYPATSRMPKLTIVVVDTIPVELKSSYMVWSWFIYVLSANLLLVIPLLWVAAWWSLRPIEALAKEVRELEEHNRELLNPATTRELTSLVRNLNRLLKSERERYDKYRTTLTDLTHSLKTPLXXLQXXLRSLRSEKMSVSDAEPVMLEQISRISQQIGYYLHRASMRGGTLLSRELHPVAPLLDNLTSALNKVYQRKGVNISLDISPEISFVGEQNDFVEVMGNVLDNACKYCLEFVEISARQTDEHLYIVVEDDGPGIPLSKREVIFDRGQRVDTLRPGQGVGLAVAREITEQYEGKIVAGESMLGGARMEVIFGRQHSAPKDE

This is one part of the list.

The assay covers variants of B1. In words: enrichment ratio after two sorts for PhoP signalling (ratio (wild type AVST 3.29)); higher = more functional. Conditions: with PhoP (E. coli).
With VAEM, the enrichment ratio was at most 0.25. The figure for PPEQ is at most 0.25; for NWGF it is at most 0.25. In the case of VTCW it was at most 0.25; in that of RDGG, at most 0.25; in that of AMPI, 0.985. As to IVMS, the enrichment ratio was at most 0.25. The figure for LCHA is at most 0.25; for WLPC it is at most 0.25; for IYSI it is at most 0.25. The figure for LPVA is at most 0.25; for NHLQ it is at most 0.25.

For HGEY, the enrichment ratio was at most 0.25.

As for IWHA, the enrichment ratio was at most 0.25. In the case of FCAS it was at most 0.25; in that of NPIF, at most 0.25; in that of PEPS, at most 0.25.

As for ACMY, the enrichment ratio is at most 0.25. In the case of HVSL it was at most 0.25; in that of ATRY, at most 0.25; in that of DYTA, at most 0.25.

For the variant DHWK, the enrichment ratio is at most 0.25.

With ISVG, the enrichment ratio was at most 0.25.

Regarding YPHP, the enrichment ratio is at most 0.25. In the case of LYRG it was at most 0.25; in that of VIAA, at most 0.25; in that of WHCL, at most 0.25. For RHES, the enrichment ratio was at most 0.25.

Regarding LHSA, the enrichment ratio was at most 0.25. The figure for ICMI is at most 0.25; for PHWD it is at most 0.25; for KCNT it is at most 0.25. The figure for MFDF is at most 0.25; for PMAK it is at most 0.25; for PWDR it is at most 0.25. In the case of WMLG it was at most 0.25. As for EFPD, the enrichment ratio is at most 0.25. The figure for YFGG is at most 0.25. The figure for SCCY is 5.42; for AYAW it is at most 0.25.

PETR: the enrichment ratio was at most 0.25. Regarding SCLF, the enrichment ratio turned out to be 8.98. In the case of MYRR it was at most 0.25; in that of EHLL, at most 0.25. In the case of YHTV, the enrichment ratio is at most 0.25.

In the case of GSHG, the enrichment ratio is at most 0.25. Turning to AWKV, the enrichment ratio was at most 0.25. Take WSLF: the enrichment ratio is at most 0.25. In the case of VAPK it was at most 0.25; in that of FIWA, at most 0.25; in that of MRYW, at most 0.25. In the case of VKGT it was at most 0.25; in that of IKHY, at most 0.25. The figure for TGDL is at most 0.25; for LDNH it is at most 0.25. As to KEWV, the enrichment ratio was at most 0.25.

Regarding RDTP, the enrichment ratio was at most 0.25. In the case of WSRR it was at most 0.25. In the case of YFGA it was at most 0.25. The figure for NQNV is at most 0.25. Turning to QVIY, the enrichment ratio is at most 0.25. In the case of PGNV it was at most 0.25; in that of KFMD, at most 0.25.

Regarding AVLW, the enrichment ratio is at most 0.25. The figure for IGRS is at most 0.25; for THRP it is at most 0.25; for KLSG it is at most 0.25. In the case of KKLK it was at most 0.25; in that of IAEH, at most 0.25. In the case of NTNK, the enrichment ratio was at most 0.25.

As to NYLN, the enrichment ratio is at most 0.25. As for LMEF, the enrichment ratio was at most 0.25. In the case of LATC it was at most 0.25; in that of KEFG, at most 0.25; in that of EGKR, at most 0.25.

Turning to RATA, the enrichment ratio was at most 0.25. With QQGH, the enrichment ratio was determined as 6. The figure for EHGM is at most 0.25; for CRSP it is at most 0.25. With NSVI, the enrichment ratio was at most 0.25. The figure for WTFG is at most 0.25; for FGWS it is at most 0.25; for EERD it is at most 0.25. In the case of TCWG it was at most 0.25. With DPKT, the enrichment ratio is at most 0.25. The figure for QVYP is at most 0.25; for YGLQ it is 4.74. RQHW: the enrichment ratio is at most 0.25.

With PFIF, the enrichment ratio is at most 0.25. As to MCHH, the enrichment ratio is at most 0.25. In the case of SMEF it was at most 0.25; in that of REAG, at most 0.25. In the case of RYKI it was at most 0.25. In the case of LAFG it was at most 0.25; in that of DAWG, at most 0.25.

As to AVRR, the enrichment ratio was at most 0.25. In the case of QSYV it was 14.9.

Take NMQF: the enrichment ratio was at most 0.25.

On to LTEI, for which the enrichment ratio is at most 0.25. In the case of PLAK it was at most 0.25. In the case of ALMC it was at most 0.25.

On to AMDH, for which the enrichment ratio was at most 0.25. The figure for HKDE is at most 0.25; for NPST it is at most 0.25; for WGKH it is at most 0.25. Take QITR: the enrichment ratio is at most 0.25. In the case of PAWY it was at most 0.25; in that of GYRE, at most 0.25; in that of THHK, at most 0.25. Turning to WYVV, the enrichment ratio was at most 0.25.

As for TNEC, the enrichment ratio was at most 0.25. The figure for PNWE is at most 0.25; for HVCF it is at most 0.25; for TKKM it is at most 0.25.

Take WHYE: the enrichment ratio was at most 0.25.

Regarding FKKS, the enrichment ratio was at most 0.25. The figure for EHQK is at most 0.25; for IEPV it is at most 0.25. The figure for YPWI is at most 0.25; for ELDA it is at most 0.25; for PTSN it is at most 0.25. In the case of MHCC it was at most 0.25.

Take QMAF: the enrichment ratio came out at 0.276.

VDNI: the enrichment ratio is at most 0.25. The figure for AYTG is at most 0.25. The figure for DDTN is at most 0.25. The figure for GFVQ is at most 0.25. Turning to HWHK, the enrichment ratio is at most 0.25. The figure for GDTP is at most 0.25; for MVCG it is at most 0.25. For the variant VGHL, the enrichment ratio is at most 0.25.

Consider LTDL, for which the enrichment ratio is at most 0.25. The figure for WSFK is at most 0.25; for MQIL it is 1.4. Regarding QSTG, the enrichment ratio is at most 0.25. The figure for RWLI is at most 0.25. The figure for VNPH is at most 0.25. In the case of KQFF, the enrichment ratio is at most 0.25. The figure for ECRK is at most 0.25; for DREL it is at most 0.25; for WFVQ it is at most 0.25.

For the variant NWSN, the enrichment ratio was at most 0.25. On to QYAD, for which the enrichment ratio was at most 0.25.

For the variant EVHK, the enrichment ratio was at most 0.25. The figure for TSSQ is 11.8; for GLWR it is at most 0.25.

For PWSC, the enrichment ratio was at most 0.25. The figure for ERAE is at most 0.25; for WFGV it is at most 0.25.

As for FYDV, the enrichment ratio is at most 0.25.

As for VRWQ, the enrichment ratio is at most 0.25. Turning to EFSW, the enrichment ratio is at most 0.25.

For the variant RPSF, the enrichment ratio is at most 0.25.

(Values after a collection of fitness landscapes (doi:10.1126/science.1257360).)
